Experimental findings from paper PMC9911399, “Two distinct binding modes provide the RNA-binding protein RbFox with extraordinary sequence specificity” are described below.

T1: RBFOX1 RRM (Homo sapiens, UniProt Q9NWB1 109-208)
T1 sequence: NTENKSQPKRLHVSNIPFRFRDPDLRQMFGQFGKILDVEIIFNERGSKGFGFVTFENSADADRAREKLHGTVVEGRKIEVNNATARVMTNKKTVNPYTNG

B1: CCUCCAC (DNA:RNA)
RNA: GGGAGACCGGAAUUCAGAUUGUCCCCUCCACUUAAAUCCCGUCGUAGCCACCA
DNA 1: CAATCTGAATTCCGGTCTCCC
DNA 2: TGGTGGCTACGACGGGATT
B2: GUGCACC (DNA:RNA)
RNA: B1 RNA with C25G, C26U, U27G, C29A, A30C
DNA 1: CAATCTGAATTCCGGTCTCCC
DNA 2: TGGTGGCTACGACGGGATT
B3: CAUAGUC (DNA:RNA)
RNA: B1 RNA with C26A, C28A, C29G, A30U
DNA 1: CAATCTGAATTCCGGTCTCCC
DNA 2: TGGTGGCTACGACGGGATT
B4: UAUUUUU (DNA:RNA)
RNA: B1 RNA with C25U, C26A, C28U, C29U, A30U, C31U
DNA 1: CAATCTGAATTCCGGTCTCCC
DNA 2: TGGTGGCTACGACGGGATT
B5: AUUGGGU (DNA:RNA)
RNA: B1 RNA with C25A, C26U, C28G, C29G, A30G, C31U
DNA 1: CAATCTGAATTCCGGTCTCCC
DNA 2: TGGTGGCTACGACGGGATT
B6: UUCCACC (DNA:RNA)
RNA: B1 RNA with C25U, C26U, U27C, C29A, A30C
DNA 1: CAATCTGAATTCCGGTCTCCC
DNA 2: TGGTGGCTACGACGGGATT
B7: UCACUCC (DNA:RNA)
RNA: B1 RNA with C25U, U27A, C29U, A30C
DNA 1: CAATCTGAATTCCGGTCTCCC
DNA 2: TGGTGGCTACGACGGGATT
B8: AGGGUAA (DNA:RNA)
RNA: B1 RNA with C25A, C26G, U27G, C28G, C29U, C31A
DNA 1: CAATCTGAATTCCGGTCTCCC
DNA 2: TGGTGGCTACGACGGGATT
B9: AACGUAG (DNA:RNA)
RNA: B1 RNA with C25A, C26A, U27C, C28G, C29U, C31G
DNA 1: CAATCTGAATTCCGGTCTCCC
DNA 2: TGGTGGCTACGACGGGATT
B10: UUAGAGC (DNA:RNA)
RNA: B1 RNA with C25U, C26U, U27A, C28G, C29A, A30G
DNA 1: CAATCTGAATTCCGGTCTCCC
DNA 2: TGGTGGCTACGACGGGATT
B11: GGCGCAG (DNA:RNA)
RNA: B1 RNA with C25G, C26G, U27C, C28G, C31G
DNA 1: CAATCTGAATTCCGGTCTCCC
DNA 2: TGGTGGCTACGACGGGATT
B12: AGAGCUU (DNA:RNA)
RNA: B1 RNA with C25A, C26G, U27A, C28G, A30U, C31U
DNA 1: CAATCTGAATTCCGGTCTCCC
DNA 2: TGGTGGCTACGACGGGATT
B13: CGCCCGA (DNA:RNA)
RNA: B1 RNA with C26G, U27C, A30G, C31A
DNA 1: CAATCTGAATTCCGGTCTCCC
DNA 2: TGGTGGCTACGACGGGATT
B14: GAAUCUU (DNA:RNA)
RNA: B1 RNA with C25G, C26A, U27A, C28U, A30U, C31U
DNA 1: CAATCTGAATTCCGGTCTCCC
DNA 2: TGGTGGCTACGACGGGATT
B15: ACCCAUC (DNA:RNA)
RNA: B1 RNA with C25A, U27C, C29A, A30U
DNA 1: CAATCTGAATTCCGGTCTCCC
DNA 2: TGGTGGCTACGACGGGATT
B16: UCAGAUC (DNA:RNA)
RNA: B1 RNA with C25U, U27A, C28G, C29A, A30U
DNA 1: CAATCTGAATTCCGGTCTCCC
DNA 2: TGGTGGCTACGACGGGATT
B17: GGGGGAG (DNA:RNA)
RNA: B1 RNA with C25G, C26G, U27G, C28G, C29G, C31G
DNA 1: CAATCTGAATTCCGGTCTCCC
DNA 2: TGGTGGCTACGACGGGATT
B18: AAUUAAU (DNA:RNA)
RNA: B1 RNA with C25A, C26A, C28U, C29A, C31U
DNA 1: CAATCTGAATTCCGGTCTCCC
DNA 2: TGGTGGCTACGACGGGATT
B19: GUUCUUC (DNA:RNA)
RNA: B1 RNA with C25G, C26U, C29U, A30U
DNA 1: CAATCTGAATTCCGGTCTCCC
DNA 2: TGGTGGCTACGACGGGATT
B20: ACGGUUU (DNA:RNA)
RNA: B1 RNA with C25A, U27G, C28G, C29U, A30U, C31U
DNA 1: CAATCTGAATTCCGGTCTCCC
DNA 2: TGGTGGCTACGACGGGATT
B21: AAUAUAA (DNA:RNA)
RNA: B1 RNA with C25A, C26A, C28A, C29U, C31A
DNA 1: CAATCTGAATTCCGGTCTCCC
DNA 2: TGGTGGCTACGACGGGATT
B22: UUCCGUC (DNA:RNA)
RNA: B1 RNA with C25U, C26U, U27C, C29G, A30U
DNA 1: CAATCTGAATTCCGGTCTCCC
DNA 2: TGGTGGCTACGACGGGATT
B23: AGCAAAA (DNA:RNA)
RNA: B1 RNA with C25A, C26G, U27C, C28A, C29A, C31A
DNA 1: CAATCTGAATTCCGGTCTCCC
DNA 2: TGGTGGCTACGACGGGATT
B24: CACCAUC (DNA:RNA)
RNA: B1 RNA with C26A, U27C, C29A, A30U
DNA 1: CAATCTGAATTCCGGTCTCCC
DNA 2: TGGTGGCTACGACGGGATT
B25: UAGUCGC (DNA:RNA)
RNA: B1 RNA with C25U, C26A, U27G, C28U, A30G
DNA 1: CAATCTGAATTCCGGTCTCCC
DNA 2: TGGTGGCTACGACGGGATT
B26: UUAUGUA (DNA:RNA)
RNA: GGGAGACCGGAAUUCAGAUUGUCCUUAUGUAUUAAAUCCCGUCGUAGCCACCA
DNA 1: CAATCTGAATTCCGGTCTCCC
DNA 2: TGGTGGCTACGACGGGATT
B27: CCUAACU (DNA:RNA)
RNA: B1 RNA with C28A, C29A, A30C, C31U
DNA 1: CAATCTGAATTCCGGTCTCCC
DNA 2: TGGTGGCTACGACGGGATT
B28: ACCGCUA (DNA:RNA)
RNA: B1 RNA with C25A, U27C, C28G, A30U, C31A
DNA 1: CAATCTGAATTCCGGTCTCCC
DNA 2: TGGTGGCTACGACGGGATT
B29: ACGAUUG (DNA:RNA)
RNA: B1 RNA with C25A, U27G, C28A, C29U, A30U, C31G
DNA 1: CAATCTGAATTCCGGTCTCCC
DNA 2: TGGTGGCTACGACGGGATT
B30: CGAUUAG (DNA:RNA)
RNA: B1 RNA with C26G, U27A, C28U, C29U, C31G
DNA 1: CAATCTGAATTCCGGTCTCCC
DNA 2: TGGTGGCTACGACGGGATT
B31: GGUGAUG (DNA:RNA)
RNA: B1 RNA with C25G, C26G, C28G, C29A, A30U, C31G
DNA 1: CAATCTGAATTCCGGTCTCCC
DNA 2: TGGTGGCTACGACGGGATT

Numbering of substitutions follows the chain as printed; changes in the protein carry UniProt numbers. Some of the results follow.

The test addresses T1, RBFOX1 RRM. As to the kind of experiment: EMSA; HiTS-Eq, 1 nM pool, 10 min; buffer printed only for the single-RNA assays: 10 mM Tris pH 7.5, 150 mM NaCl, 3.4 mM EDTA, 0.001% NP-40, 30 C. The note with it: tags: His6 N-terminal (pET28a); label: 5' 32P. The gist of the method:
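Purified wild-type or mutant RbFox RRM at increasing concentrations was equilibrated with 1 nM of 5′-radiolabelled RNA carrying 7 randomized nucleotides for 10 min in 50 µL. Unbound RNA was separated by 8% native PAGE and sequenced. Relative association constants came from read-count changes of each RNA species compared with the control reaction, normalised to the cognate motif.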
Background: In EMSA bound probe runs differently from free probe, usually more slowly.
Take B1: the binding signal was 0.000915 KA relative to UGCAUGU.

Regarding B2, the binding signal was 0.0178 KA relative to UGCAUGU.

As for B3, the binding signal was 0.00619 KA relative to UGCAUGU.

B4: the binding signal is 0.0102 KA relative to UGCAUGU.

Consider B5, for which the binding signal was 0.0105 KA relative to UGCAUGU.

As for B6, the binding signal was 0.0065 KA relative to UGCAUGU.

For B7, the binding signal is 0.00159 KA relative to UGCAUGU.

With B8, the binding signal was 0.0131 KA relative to UGCAUGU.

In the case of B9, the binding signal is 0.00663 KA relative to UGCAUGU.

With B10, the binding signal is 0.0126 KA relative to UGCAUGU.

B11: the binding signal was 0.0128 KA relative to UGCAUGU.

Regarding B12, the binding signal is 0.00761 KA relative to UGCAUGU.

For the molecule B13, the binding signal is 0.012 KA relative to UGCAUGU.

As for B14, the binding signal is 0.0115 KA relative to UGCAUGU.

For B15, the binding signal was 0.000958 KA relative to UGCAUGU.

On to B16, for which the binding signal is 0.00703 KA relative to UGCAUGU.

On to B17, for which the binding signal is 0.021 KA relative to UGCAUGU.

Consider B18, for which the binding signal was 0.00321 KA relative to UGCAUGU.

Turning to B19, the binding signal was 0.0209 KA relative to UGCAUGU.

Consider B20, for which the binding signal is 0.0116 KA relative to UGCAUGU.

Regarding B21, the binding signal was 0.00278 KA relative to UGCAUGU.

For the molecule B22, the binding signal is 0.0117 KA relative to UGCAUGU.

B23: the binding signal is 0.00164 KA relative to UGCAUGU.

B24: the binding signal is 0.00178 KA relative to UGCAUGU.

Regarding B25, the binding signal is 0.0124 KA relative to UGCAUGU.

As for B26, the binding signal was 0.0155 KA relative to UGCAUGU.

Regarding B27, the binding signal is 0.00233 KA relative to UGCAUGU.

With B28, the binding signal was 0.00499 KA relative to UGCAUGU.

For B29, the binding signal is 0.0124 KA relative to UGCAUGU.

In the case of B30, the binding signal was 0.00959 KA relative to UGCAUGU.

As to B31, the binding signal is 0.0163 KA relative to UGCAUGU.
